From PubChem BioAssay AID493208 (National Center for Advancing Translational Sciences (NCATS), 2011)
The campaign covered roughly 44,000 compounds. About 340 (0.77%) were called active. Roughly 5% stayed inconclusive and do not appear here. The call rests on the fitted dose curve; in most records, active means well fitted inhibition curve with a large enough effect; inconclusive means small, poorly fitted or top-dose-only effect; inactive means flat fitted curve, though single readings scatter. The list shows a part of the results.

Test: Acumen qHTS Assay for Inhibitors of the mTORC1 Signaling Pathway in MEF (Tsc2-/-, p53-/-) Cells: Sytravon; further: nearly all actives have a fitted effect of over 50% in size;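 on activity change, negative = inhibition: plate controls were DMSO for no effect and rapamycin for full effect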
Conditions: phospho-rpS6 immunofluorescence/PI, 24 h; series mostly up to 38.3 µM; activity change, negative = inhibition: at the top concentration
Summary of the method: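 Plate MEFs (Tsc2-/-, p53-/-, empty vector) in DMEM/10% FBS; after 24 h add compound, incubate 24 h at 37 degree Celsius; fix in PFA/TX-100, block, stain phospho-rpS6 and 10 uM PI; scan at 488 nm; report % positive cells.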
Potency means the concentration at half of the fitted maximal effect.

Activity change, negative = inhibition, inactive:
Cc1nn(-c2ccccc2)c2c1N(CCCC(=O)NC(C)c1ccccc1)C(=O)CS2 (centres undefined) -2.17%, Cc1ccc(S(=O)(=O)c2cn(Cc3ccccc3)c3cc(N4CCOCC4)c(F)cc3c2=O)cc1 7.57%, CCc1ccc(CNC(=O)CCn2nc(C)c3c(C)n(-c4ccccc4)nc3c2=O)cc1 0.139%, COc1cc(NC(=O)c2noc3c2CC(C)CC3)c(OC)cc1Cl (centres undefined) 1.99%, CC1CCC(NC(=O)c2ccc(CSc3nc4ccncc4n3Cc3ccc(F)cc3)cc2)CC1 (centres undefined) 0.778%, Cc1nn(CCCC(=O)Nc2ccccc2C(F)(F)F)c(=O)c2nn(-c3ccccc3)c(C)c12 -2.9%, Cc1nn2c(-c3ccccc3)cc(-c3ccccc3)nc2c1-c1ccc(Cl)cc1 -0.0502%, COc1ccc(C(CC(=O)Nc2ncccc2C)N2Cc3ccccc3C2=O)cc1OC (centres undefined) -4.23%, O=C(Nc1ccccc1)c1cccc(N2CCCS2(=O)=O)c1 -2.61%, Cc1cc(C)n2nc(CNC(=O)c3ccc(Cl)cc3)nc2n1 2.03%, COc1cccc(-c2nc(CS(=O)(=O)CC(=O)N3CCN(c4ccccc4)CC3)c(C)o2)c1 0.0409%, Cc1ccc(Cl)cc1N1CCN(C(=O)c2ccc3c(Cl)c4c(nc3c2)CCCC4)CC1 -0.27%, O=C(Cn1c(=O)ccc2cc(S(=O)(=O)N3CCCC3)ccc21)Nc1ccccc1 -7.57%, CCN1CCN(CCCNC(=O)Cn2c(-c3cccs3)cc3cc(Cl)ccc32)CC1 -8.49%, COc1ccc(-c2nc(CNC(=O)Nc3ccccc3)c(C)o2)c(OC)c1 17.4%, O=c1ccc(-c2ccccc2)nn1Cc1c(F)cccc1Cl -2.41%, COc1ccccc1CNC(=O)CCc1c(C)c2cc3c(C)coc3cc2oc1=O -10.3%, CCn1ccc2c(OCC(=O)Nc3ccc(OC)cc3OC)cccc2c1=O -1.76%, CCn1cc(C(=O)NCCC(C)C)c(=O)c2cc(S(=O)(=O)N(C)C3CCCCC3)ccc21 0.703%, CCC(=O)N1c2ccccc2CC1C(=O)NCCCN1CCN(c2ccc(OC)cc2)CC1 (centres undefined) 9.03%, CCCCOc1ccc(CNC(=O)c2cnc3sc(N4CCCC4)nn3c2=O)cc1 0.0872%, Cc1c(Cl)cccc1NC(=O)C(=O)NCCc1csc2nc(-c3ccccc3F)nn12 -5.26%, CC1CCCCN1c1cc2c(cc1F)c(=O)c(S(=O)(=O)c1ccccc1)cn2Cc1ccccc1 (centres undefined) -3.42%, O=C(Cn1c(-c2cccs2)cc2cc(F)ccc21)NCCc1ccc(Cl)cc1 -4.85%, O=S(=O)(Nc1ccc(O)c(Sc2nc3ccccc3s2)c1)c1cc(Cl)ccc1Cl -11.8%, Cc1nc2c3cccnc3nn2c(C)c1CCC(=O)NCc1ccccc1 -16.4%, Cc1ccc(C)c(NC(=O)c2cc(S(=O)(=O)NCc3ccccc3)ccc2F)c1 -7.67%, CCN(CC)S(=O)(=O)c1ccc2c(c1)nc(CN(C)C(=O)Nc1ccc(C)c(Cl)c1)n2C 20.7%, COc1ccc(Nc2ncc(C(=O)Nc3cccc(Cl)c3)c3ccccc23)cc1 -0.526%, CCc1ccc(NC(=O)C(=O)NCC(c2ccc3c(c2)OCO3)N2CCN(C)CC2)cc1 (centres undefined) -10.4%, CC(C)CCNC(=O)c1cnc2sc(N3CCCCCC3)nn2c1=O -3.24%, COc1ccc(-n2nc3c(N4CCC(C(=O)N5CCC(C)CC5)CC4)nnc(C)c3c2C)cc1 -9.65%, COc1ccc(CNC(=O)c2ccc(Cn3c(=O)c4cccn4c4cccnc43)cc2)c(OC)c1 2.51%, Cc1ccc(O)c(NC(=O)c2cc(-c3ccc(F)cc3)no2)c1 1.1%, CCOc1ccc(-n2ccnc2SCC(=O)Nc2cc(C)ccc2C)cc1 -1.35%, O=C(C1CCC1)N1CCCc2cc(S(=O)(=O)N3CCN(c4cccc(Cl)c4)CC3)ccc21 2.26%, Cc1ccc(C)c(NC(=O)C(=O)NCCCN2CCOCC2)c1 -4.8%, Cc1onc(-c2ccccc2Cl)c1C(=O)Oc1ccc(Cl)cc1Cl 6.39%, CCOc1ccccc1NC(=O)COC(=O)CC(C)(C)CC1=NS(=O)(=O)c2ccccc2N1 -19%, O=C(NCCCN1CCN(c2ccccc2)CC1)c1sc2ncccc2c1-n1cccc1 1.32%, CCOc1ccc(CCNC(=O)c2cnc3c(-c4ccc(F)cc4)c(C)nn3c2C)cc1 1.21%, COc1ccc(N(C(=O)c2ccccc2C)S(=O)(=O)c2ccc(Cl)cc2)cc1 -4.08%, COc1cc(S(=O)(=O)NCCc2c(C)[nH]c3ccc(C)cc23)ccc1Br 1.22%, Nc1ncc(S(=O)(=O)NCc2ccccc2)cn1 -1.11%, CN1C(C(=O)Nc2cccc(O)c2)=CC(c2cccs2)=NS1(=O)=O 5.9%, COc1ccc(C(=O)c2cn(Cc3ccccc3)c3ccccc3c2=O)cc1OC -3.85%, O=C(NCCc1nc2ccccc2n1Cc1ccccc1F)c1ccc(F)cc1 2.42%, COc1ccc(CN(C)c2ccc(-c3nc(-c4ccc(OC)c(OC)c4)no3)cc2[N+](=O)[O-])cc1 0.251%, CCOc1ccc2nc(Cl)c(C3CC(c4ccc(C)cc4)=NN3C(=O)CCC(=O)O)cc2c1 (centres undefined) 4.31%, Cc1cccc(N2CCN(C(=O)C3CCN(C(=O)c4cc5sccc5n4C)CC3)CC2C)c1 (centres undefined) -0.0402%, Cc1c(Cl)cccc1NC(=O)CCS(=O)(=O)c1ccc2c(c1)CC(C)N2C(=O)C1CC1 (centres undefined) 0.0211%, COc1cn(CC(=O)Nc2cc(C)cc(C)c2)c(CN2CCCCC2)cc1=O -9.75%, CCOc1ccccc1CNCc1c(C(=O)O)c(C)n(Cc2ccc(C)cc2)c1C 0.909%, CN1CCc2nc3sc(C(=O)c4ccc(F)cc4)c(N)c3cc2C1 -18.2%, COc1cccc(-c2nnc(SCC(=O)N(C)C3CCCCC3)o2)c1 -8.61%, CN1C(=O)c2cccc3c(S(=O)(=O)Nc4cccc(C(=O)O)c4)ccc1c23 -1.59%, CCOc1ccc(NC(=O)CN(Cc2ccccc2)S(=O)(=O)c2ccc3nc(C)sc3c2)cc1 -16.2%, CCOc1ccc(CCNC(=O)Cn2c(-c3cccs3)cc3ccccc32)cc1 -7.2%, CN(c1ccc(F)cc1)S(=O)(=O)N1CCCC(C(=O)NCc2ccccc2Cl)C1 (centres undefined) -24%, CCN(CC)S(=O)(=O)c1ccc(OC)c(NC(=O)c2sc3ccccc3c2Cl)c1 5.65%, Cc1ccc2c(c1)c1c(c(=O)n(Cc3ccccc3)c(=O)n1Cc1ccccc1F)n2C -0.907%, Cc1cccc(NC(=O)c2oc3ccccc3c2NC(=O)c2cc(=O)c3ccccc3o2)c1 7.81%, CCOc1ccc(N2CC(NC(=O)c3ccc(Cl)cc3)CC2=O)cc1 (centres undefined) -7.1%, CCOC(=O)N1CCc2c(sc3c2c(=O)n(Cc2ccccc2)c(=O)n3CC(=O)Nc2ccc(F)cc2)C1 -7.17%, CNC(=O)CN1C(=O)COc2ccc(S(=O)(=O)N3CCCCCC3)cc21 0.506%, Fc1ccc(C(c2nnc(-c3ccccc3)o2)N2CCN(c3cccc(Cl)c3)CC2)cc1 (centres undefined) -3.31%, CCc1ccccc1NC(=O)CSc1nncn2c1cc1oc(C)cc12 2.87%, COc1ccc(CN2C(=O)C(NC(=O)c3cccc(C)c3)(C(F)(F)F)N=C2c2ccccc2)cc1 (centres undefined) 6.14%, Cn1c2ccccc2c2cnn(CC(=O)NCCCN3CCCCC3)c(=O)c21 -0.431%, CCOc1ccc(NC(=O)CSc2cn(CCNC(=O)c3ccccc3F)c3ccccc23)cc1 -8.22%, CCOC(=O)C(CC)n1nnc2sc(-c3ccccc3)cc2c1=O (centres undefined) 1.25%, CC(=O)c1cccc(NC(=O)CSc2nnc3ccc(-c4ccc(Br)cc4)nn23)c1 -3.23%, O=C(NCCS(=O)(=O)N1CCN(c2ccc(F)cc2)CC1)C(c1ccccc1)c1ccccc1 -0.47%, Cc1ccc2oc(=O)c3cnn(CC(=O)N4CCN(c5ccc(F)cc5)CC4)c3c2c1 2.06%, Cc1ccc(CNC(=O)CSc2nc3c(sc4ccccc43)c(=O)n2CCCOC(C)C)cc1 0.165%, COc1ccc(OC)c(CCNC(=O)c2cc3c(s2)-c2c(C)cccc2OC3)c1 -8.39%, Cc1ccc(-n2c(=O)c3sc4ccccc4c3n(CC(=O)NC3CCCC3)c2=O)cc1C -14.5%, Cc1ccc(NC(=O)Cn2c(=O)n(Cc3ccccc3)c(=O)c3sc4ccccc4c32)cc1 -17.7%, Cc1c(Cl)cccc1-c1ccc(CNCCSc2nnnn2-c2ccccc2)o1 -2.06%, CCS(=O)(=O)c1ncc(N(Cc2ccccc2)Cc2ccco2)c(C(=O)Nc2cccc(Cl)c2C)n1 1.14%, COc1ccccc1C(=O)Nc1ccc2nc(SCC(=O)N(C)c3ccccc3)sc2c1 1.07%, CCOc1ccc(NC(=O)C(Cc2ccccc2)NS(=O)(=O)c2ccc3c(c2)oc(=O)n3C)cc1 (centres undefined) -13.6%, CCN(CC)S(=O)(=O)c1ccc(NC(=O)CN(c2ccccc2)S(=O)(=O)N(C)C)cc1 4.28%, O=C(CN1C(=O)C2(SCC(=O)N2c2cccc(Cl)c2)c2ccccc21)NCCc1ccccc1 (centres undefined) -3.07%, CCOc1ccc(NC(=O)c2c(Nc3ccccc3C)sc(C(=O)c3ccccc3)c2N)cc1 -3.29%, CCOc1ccc(CNC(=O)c2ccc3c(c2)c(C)c(C)n3Cc2ccccc2)cc1OC -4.44%, Cc1ccc(-n2ncc(C(=O)N3CCN(c4cc(Cl)ccc4C)CC3)c2C2CCN(C(=O)OC(C)(C)C)CC2)cc1 -3.93%, COC(=O)c1ccc(Cl)cc1NC(=O)Nc1nnc(N2CCCC2)s1 -0.231%, COc1ccc(CCNC(=O)c2ccc3c(c2)N(Cc2ccccc2)C(=O)c2ccccc2S3=O)cc1OC (centres undefined) 0.617%, COc1ccc(CCn2c3c(c(=O)[nH]c2=O)C(NC(=O)c2ccc(Cl)cc2)(C(F)(F)F)C(=O)N3)cc1OC (centres undefined) 3.61%, COC(=O)CSc1ncc2c(n1)-c1ccccc1N(Cc1ccc(Cl)cc1)S2(=O)=O 7.81%, COc1ccc(CNc2ncnc3c2nc2n3CCCC2)cc1 2.53%, Cc1cccc(OCC(=O)Nc2ccccc2C(=O)OCc2cc(=O)n3ccsc3n2)c1 0%

Potency, active:
CCC(C)S(=O)(=O)c1oc(-c2cccs2)nc1S(=O)(=O)c1ccccc1 (centres undefined) 1170 nM
